# Data reported in paper PMC4336329 (PLoS ONE, 2015).
# The campaign covered roughly 310,000 compounds. About 2,200 (0.71%) showed an effect of 50% or more. The effect is printed as a negative number. The list shows a part of the results.
# Target: human ether-à-go-go-related gene (hERG) potassium channel (human, UniProt Q12809)
# Experiment: primary screen, population patch clamp on CHO cells stably expressing hERG
# Chain of human ether-à-go-go-related gene (hERG) potassium channel (Q12809 whole entry, looked up): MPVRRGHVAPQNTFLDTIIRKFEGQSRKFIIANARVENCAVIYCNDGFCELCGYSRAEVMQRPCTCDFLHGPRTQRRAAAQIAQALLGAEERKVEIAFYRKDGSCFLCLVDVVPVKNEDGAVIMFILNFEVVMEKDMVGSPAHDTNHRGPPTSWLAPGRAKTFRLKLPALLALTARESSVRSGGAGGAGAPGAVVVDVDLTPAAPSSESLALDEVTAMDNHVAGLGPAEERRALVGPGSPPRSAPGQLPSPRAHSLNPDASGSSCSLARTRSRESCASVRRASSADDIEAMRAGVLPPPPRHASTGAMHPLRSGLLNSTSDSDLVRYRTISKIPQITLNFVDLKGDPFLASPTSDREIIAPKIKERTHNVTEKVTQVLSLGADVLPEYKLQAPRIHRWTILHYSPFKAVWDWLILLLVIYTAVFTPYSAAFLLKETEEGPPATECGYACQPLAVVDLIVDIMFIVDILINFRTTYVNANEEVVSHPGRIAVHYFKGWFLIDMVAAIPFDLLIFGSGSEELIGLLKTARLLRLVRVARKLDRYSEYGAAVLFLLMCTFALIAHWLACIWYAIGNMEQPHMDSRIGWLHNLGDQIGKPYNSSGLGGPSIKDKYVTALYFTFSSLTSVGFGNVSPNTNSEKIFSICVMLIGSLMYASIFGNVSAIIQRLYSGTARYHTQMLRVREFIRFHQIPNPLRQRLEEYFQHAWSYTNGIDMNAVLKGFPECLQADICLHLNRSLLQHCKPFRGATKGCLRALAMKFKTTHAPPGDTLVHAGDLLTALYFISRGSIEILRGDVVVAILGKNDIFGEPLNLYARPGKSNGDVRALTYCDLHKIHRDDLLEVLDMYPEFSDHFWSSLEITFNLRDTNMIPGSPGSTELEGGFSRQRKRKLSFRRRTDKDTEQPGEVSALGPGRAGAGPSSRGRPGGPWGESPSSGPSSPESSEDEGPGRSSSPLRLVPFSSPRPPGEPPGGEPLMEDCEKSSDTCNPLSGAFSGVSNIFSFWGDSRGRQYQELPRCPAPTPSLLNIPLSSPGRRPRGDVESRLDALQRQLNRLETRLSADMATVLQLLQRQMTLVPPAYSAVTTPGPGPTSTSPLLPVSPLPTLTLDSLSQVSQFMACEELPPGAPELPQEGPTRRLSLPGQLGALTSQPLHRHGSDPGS
row,Structure (SMILES),"hERG current change (%, negative = inhibition) at 1uM"
1,CSc1ccc(S(=O)(=O)NCC(=O)OCC(=O)NCc2cccs2)cc1[N+](=O)[O-],3.18%
2,CCc1ccc(OCC(=O)NNC(=O)c2cc(S(=O)(=O)N(C)C)ccc2N2CCCC2)cc1,-9.9%
3,CC(C)(C)SCCNC(=O)c1ccc(Cl)c([N+](=O)[O-])c1,8.24%
4,COc1ccc(CCNC(=O)c2cc3c(=O)n4ccccc4nc3n(CC3CCCO3)c2=N)cc1OC (stereo not shown),-90.3%
5,Cc1ccc(NC(=O)N2N=C(c3ccc(F)cc3)CC2c2ccc(F)cc2)cc1 (stereo not shown),1.33%
6,Br.O=S(=O)(c1ccc(C2=CSC3=NCCN23)cc1)N1CCOCC1,4.74%
7,O=c1c(C(c2ccc(O)cc2)c2c(O)nc3n(c2=O)CCCS3)c(O)nc2n1CCCS2,-4.62%
8,CN(C)CCN(C(=O)C1=COCCO1)c1nc2ccc(Cl)cc2s1.Cl,-62.4%
9,O=C(Nc1cccc(-c2cccc(Cl)c2)c1)C1CCN(Cc2ccon2)CC1,-5.08%
10,CCc1noc(C)c1C(=O)Nc1ccc(Cl)c(S(=O)(=O)N2CCCCC2)c1,6.76%
11,CCCNC(=O)Cc1c(OC)ccc2cc(Br)ccc12,11.5%
12,CCn1c(C)c(P(=O)(N2CCOCC2)N2CCOCC2)c2ccccc21,3.17%
13,CCCCN(C)CCn1c(=S)[nH]c2cc(OCC)c(OCC)cc2c1=O,2.17%
14,CCn1c(SCC(=O)Nc2nc(-c3ccccc3)cs2)nc2c1c(=O)n(C)c(=O)n2C,16%
15,Cc1cc2c(cc1S(=O)(=O)NCCc1ccc(Cl)cc1)OCC(=O)N2,-13.5%
16,C=CCn1c(=NC(=O)c2ccco2)sc2cc(C(=O)OC)ccc21,2.92%
17,CCOC(=O)/C=C1\SCC(=O)N1CC(=O)NC(C)C,16.6%
18,COC(=O)c1cc2ccsc2n1CC(=O)N(C)C1CCCCC1,11.6%
19,CCOc1ccc(N(CC(=O)OC)S(=O)(=O)c2c(C)noc2C)cc1,12.9%
20,OC(COc1ccccc1)Cn1cc(Br)cn1 (stereo not shown),4.49%
21,COCCNC(=S)N1CCC(C(=O)c2ccc3c(c2)OCCO3)CC1,33.2%
22,COC(=O)c1c(C)oc(C)c1S(=O)(=O)N1CCOCC1,13.1%

row,Structure (SMILES),"hERG current change (%, negative = inhibition) at 1uM"
1,COc1ccc(C2C(C#N)C(C#N)N3CCCN23)cc1 (stereo not shown),1.84%
2,COCCN=C1Sc2nc3cc(C)c(C)cc3cc2CN1Cc1cccs1,8.08%
3,CCOC(=O)/C(C#N)=C\c1ccc(OC)c(OC)c1,6.46%
4,S=C(Nc1ccccc1)N1CCn2cccc2C1c1cccnc1 (stereo not shown),0.965%
5,CC(C)Oc1cccc(C(=O)C2CCCN(Cc3ccc4nonc4c3)C2)c1 (stereo not shown),3.15%
6,CSc1nc(Cl)c(Cc2ccc(OC(C)C)cc2)c(N(C)C)n1,6.74%
7,O=C1NC(c2ccccc2)=C(c2nc3ccccc3s2)C(c2ccc(F)cc2)N1 (stereo not shown),6.6%
8,CCOc1ccc(-c2ccc(/C=C3/C(=N)N4C(C)=CSC4=NC3=O)o2)c([N+](=O)[O-])c1,13.4%
9,O=C(c1ccc2c(=O)n(C3CCCC3)c(=S)[nH]c2c1)N1CCN(C2CCCCC2)CC1,11.7%
10,CCO/C(C)=C1\N=C(c2ccc(Cl)cc2)OC1=O,3.57%
11,COc1ccc(S(=O)(=O)N(C)c2c(C)n(C)n(-c3ccccc3)c2=O)cc1OC,8.97%
12,Cc1nnc(NCc2ccco2)s1,2.51%
13,CC(C)C(NC(=O)C1CCC(C(C)(C)C)CC1)C(=O)NCCCN1CCCCC1 (stereo not shown),-1.45%
14,CC(=O)NC(C)CCc1ccccc1 (stereo not shown),9.31%
15,CCOC(=O)c1cc(CO)cc(C(=O)OCC)c1,8.86%
16,Cc1ccc(/C(N)=N/OC(=O)CCc2ccccc2)cc1,3.03%
17,Cc1nc(NCc2ccco2)c(C#N)c2c1COC(C)(C)C2,9.93%
18,Cc1c(C)c(C)c(S(=O)(=O)N2CCNCC2)c(C)c1C.Cl,8.99%
19,Cn1c(CCC(=O)Nc2ccc(F)cc2)nc2cc(S(=O)(=O)N3CCOCC3)ccc21,-7.81%
20,Cc1c(C(=O)NCCC2=CCCCC2)sc2ncnc(N3CCCCC3C)c12 (stereo not shown),11.6%
21,NC(=O)c1ccc(N=Cc2c(O)ccc3ccccc23)cc1,14.1%
22,Nc1cccc(C(=O)OCC(=O)NC2CCCc3ccccc32)c1 (stereo not shown),12.3%

row,Structure (SMILES),"hERG current change (%, negative = inhibition) at 1uM"
1,COc1ccccc1NC(=O)Cc1nnc(SCC(=O)NC2CCCCC2C)n1C (stereo not shown),14.7%
2,COC(=O)c1c(C)[nH]c(C=O)c1-c1ccccc1,13.9%
3,O=C(O)CCCn1cc(NC(=O)c2ccco2)cn1,16.6%
4,COc1ccc(CCNS(=O)(=O)c2ccc(S(=O)(=O)N3CCCC3)cc2)cc1OC,6.19%
5,Brc1cc2c(cc1/C=N/Nc1nc(N3CCCC3)nc(N3CCOCC3)n1)OCO2,-4.8%
6,COc1ccc(O)c(C(=O)c2cnc3c(c2)c(C)nn3CCO)c1,-0.986%
7,O=C(NCC1CCN(Cc2ccc(F)cc2)CC1)C1CCCN(c2ncnc3c2nc2n3CCCCC2)C1 (stereo not shown),5.39%
8,CCCC(C)NC(C)C(=O)NC1CCCC1 (stereo not shown),13.5%
9,O=C(c1sc2cc([N+](=O)[O-])ccc2c1Cl)N1CCCCC1,-21.3%
10,O=C(/C=C/c1ccc(OCCCF)cc1)NCc1ccc(Cl)cc1,11.8%
11,CSc1c(C#N)c(N)nc2sc(C(=O)c3ccccc3)c(N)c12,10.7%
12,CCOc1ccc(NC(=O)c2ccc3[nH]c(=O)c(=O)[nH]c3c2)cc1,12.7%
13,CC(C)(C)C(=O)Nc1nnc(CCc2ccccc2)s1,1.05%
14,CC(C)Cc1nc(SCC(=O)Nc2nnc(CC(C)C)s2)n[nH]1,-3.92%
15,COc1cc(CN2CCC(C(=O)NCC(C)(C)CN(C)C)CC2)ccc1OCc1ccccc1.O=C(O)C(=O)O,14.8%
16,CCOc1ccc(C2=Nn3c(nnc3-c3ccco3)SC2)cc1,-2.23%
17,Cc1c(Cl)cccc1NC(=S)NN,8.88%
18,Nc1nnc(SCC(=O)Nc2cc(F)ccc2F)s1,9.97%
19,N#CCCn1cc(/C=N/NC(=O)c2ccncc2)c(-c2ccc(F)cc2)n1,-12.7%
20,Nc1n[nH]c(CCCO)n1,11.8%
21,CCCn1c(N)c(C(=O)CSc2nnc(-c3cccnc3)n2-c2ccc(C)cc2C)c(=O)[nH]c1=O,7.05%
22,O=C(CO/N=C/c1c(Cl)cccc1Cl)NNC(=O)c1cccc(Cl)c1,11.3%

row,Structure (SMILES),"hERG current change (%, negative = inhibition) at 1uM"
1,O=S(=O)(c1ccc(F)cc1)N1CCN(c2ccc(-c3ccccc3)nn2)CC1,5.73%
2,O=C1NC(Nc2nccs2)(C(F)(F)F)C(=O)N1CCc1ccccc1 (stereo not shown),10.9%
3,CC1C(=NO)C(C)C(c2ccccc2)NC1c1ccccc1 (stereo not shown),-10.6%
4,O=C(CN1CCN(c2ccccc2)CC1)Nc1ccccc1Sc1ccccc1,10.7%
5,NC(=O)Cn1cc(C(=O)C(=O)N2CCOCC2)c2ccccc21,8.97%
6,Cc1noc(C)c1CSc1nc2sc(C)c(C)c2c(=O)n1-c1ccccc1,14.9%
7,Cc1ccc(C(=O)O)cc1NC(=O)c1ccc2c(c1)C(=O)N(c1ccc([N+](=O)[O-])cc1)C2=O,21.9%
8,O=C(OCc1ccccc1)N1CCCC1/C=C/CN1CCOCC1 (stereo not shown),12.6%
9,CN(C(=O)/C=C/c1ccco1)c1ccccc1C(=O)O,10.5%
10,CCOC(=O)C1CCCN(c2nc3ccccc3nc2C(C#N)C(=O)NCc2ccccc2)C1 (stereo not shown),11.5%
11,OCC[C@H]1C[C@@H](O)[C@H](O)[C@]2(OCCc3ccccc32)O1,7.28%
12,CCN(CC(=O)Nc1ccc(NC(C)=O)cc1)C(=O)c1ccccc1SCc1c(C)noc1C,9.18%
13,COc1ccc(OC)c(CN2CCN(Cc3cc(=O)oc4cc(O)ccc34)CC2)c1,-67%
14,CC(O)CNc1nc2c(c(=O)n(Cc3ccc(Cl)cc3)c(=O)n2C)n1C (stereo not shown),-0.235%
15,CC(=O)/C(=N\Nc1ccc(Cl)cc1Cl)Sc1nnc(-c2ccccc2)n1-c1ccccc1,13.8%
16,CC(C)Cc1cc(C(=O)N(C)C2CCCN(Cc3ccccc3F)C2)n(C)n1 (stereo not shown),13.1%
17,COc1cc(OC)cc(C(=O)N2CCN(C3CCCCC3)CC2)c1.O=C(O)C(=O)O,-2.01%
18,CC1CCCCN1C(=O)CCC(=O)Nc1nnc(C2CCCCC2)s1 (stereo not shown),14.9%
19,O=C(NCC1COc2ccccc2O1)c1ccc(NC(=O)C2CCCO2)cc1 (stereo not shown),-4.83%
20,O=C(CSC1=Nc2ccccc2C2=NC(CC(=O)NCc3ccco3)C(=O)N12)NCc1ccco1 (stereo not shown),9.4%
21,O=C(O)CN=C1CC(c2ccccc2)CC(=O)/C1=C(/O)CCCN1C(=O)c2ccccc2C1=O (stereo not shown),2.38%
22,COc1cc(C(=O)Nc2ccc(Cl)c([N+](=O)[O-])c2)cc(OC)c1OC,15.8%
